Drawing on paper PMC4552080, this text covers binding for four substances.

The chains behind the UniProt entries cited, without tags or fusion partners. Where a name states a change or a piece, a line headed by the entry shows the natural chain unless it says otherwise. A line that says so, or that is headed by a name, gives the form on record, which may keep a tag or linker.
UniProt P08151: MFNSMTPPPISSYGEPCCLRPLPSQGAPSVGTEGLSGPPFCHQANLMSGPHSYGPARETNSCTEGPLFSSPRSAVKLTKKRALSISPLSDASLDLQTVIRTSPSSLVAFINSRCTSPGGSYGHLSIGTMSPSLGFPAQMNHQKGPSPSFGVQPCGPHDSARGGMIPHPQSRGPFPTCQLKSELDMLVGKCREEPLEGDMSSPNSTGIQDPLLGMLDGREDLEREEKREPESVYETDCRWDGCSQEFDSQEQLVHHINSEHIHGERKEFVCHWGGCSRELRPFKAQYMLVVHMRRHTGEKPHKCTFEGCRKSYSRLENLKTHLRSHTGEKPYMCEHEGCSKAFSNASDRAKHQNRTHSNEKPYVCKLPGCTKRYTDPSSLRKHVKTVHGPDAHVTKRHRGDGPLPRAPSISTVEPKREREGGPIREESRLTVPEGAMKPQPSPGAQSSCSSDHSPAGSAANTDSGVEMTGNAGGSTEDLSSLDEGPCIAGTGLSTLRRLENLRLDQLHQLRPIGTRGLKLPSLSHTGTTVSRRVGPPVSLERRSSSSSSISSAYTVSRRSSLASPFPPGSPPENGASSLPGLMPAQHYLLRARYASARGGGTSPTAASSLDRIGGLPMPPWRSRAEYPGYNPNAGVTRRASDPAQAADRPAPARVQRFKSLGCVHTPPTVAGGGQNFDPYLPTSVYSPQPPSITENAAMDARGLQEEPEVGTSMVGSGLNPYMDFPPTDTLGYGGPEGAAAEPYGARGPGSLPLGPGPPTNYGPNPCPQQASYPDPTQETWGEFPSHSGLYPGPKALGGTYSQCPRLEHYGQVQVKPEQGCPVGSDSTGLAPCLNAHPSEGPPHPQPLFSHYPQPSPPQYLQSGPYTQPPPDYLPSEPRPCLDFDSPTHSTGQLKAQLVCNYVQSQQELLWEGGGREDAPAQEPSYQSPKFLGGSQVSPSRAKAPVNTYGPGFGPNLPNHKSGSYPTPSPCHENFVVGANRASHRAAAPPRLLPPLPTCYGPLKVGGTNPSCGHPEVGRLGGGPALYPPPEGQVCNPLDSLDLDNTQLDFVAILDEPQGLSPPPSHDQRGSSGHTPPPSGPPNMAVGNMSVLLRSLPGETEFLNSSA
GLI1 S102/104/130/132D (S4D; phosphomimicking) mutant (P08151, form named): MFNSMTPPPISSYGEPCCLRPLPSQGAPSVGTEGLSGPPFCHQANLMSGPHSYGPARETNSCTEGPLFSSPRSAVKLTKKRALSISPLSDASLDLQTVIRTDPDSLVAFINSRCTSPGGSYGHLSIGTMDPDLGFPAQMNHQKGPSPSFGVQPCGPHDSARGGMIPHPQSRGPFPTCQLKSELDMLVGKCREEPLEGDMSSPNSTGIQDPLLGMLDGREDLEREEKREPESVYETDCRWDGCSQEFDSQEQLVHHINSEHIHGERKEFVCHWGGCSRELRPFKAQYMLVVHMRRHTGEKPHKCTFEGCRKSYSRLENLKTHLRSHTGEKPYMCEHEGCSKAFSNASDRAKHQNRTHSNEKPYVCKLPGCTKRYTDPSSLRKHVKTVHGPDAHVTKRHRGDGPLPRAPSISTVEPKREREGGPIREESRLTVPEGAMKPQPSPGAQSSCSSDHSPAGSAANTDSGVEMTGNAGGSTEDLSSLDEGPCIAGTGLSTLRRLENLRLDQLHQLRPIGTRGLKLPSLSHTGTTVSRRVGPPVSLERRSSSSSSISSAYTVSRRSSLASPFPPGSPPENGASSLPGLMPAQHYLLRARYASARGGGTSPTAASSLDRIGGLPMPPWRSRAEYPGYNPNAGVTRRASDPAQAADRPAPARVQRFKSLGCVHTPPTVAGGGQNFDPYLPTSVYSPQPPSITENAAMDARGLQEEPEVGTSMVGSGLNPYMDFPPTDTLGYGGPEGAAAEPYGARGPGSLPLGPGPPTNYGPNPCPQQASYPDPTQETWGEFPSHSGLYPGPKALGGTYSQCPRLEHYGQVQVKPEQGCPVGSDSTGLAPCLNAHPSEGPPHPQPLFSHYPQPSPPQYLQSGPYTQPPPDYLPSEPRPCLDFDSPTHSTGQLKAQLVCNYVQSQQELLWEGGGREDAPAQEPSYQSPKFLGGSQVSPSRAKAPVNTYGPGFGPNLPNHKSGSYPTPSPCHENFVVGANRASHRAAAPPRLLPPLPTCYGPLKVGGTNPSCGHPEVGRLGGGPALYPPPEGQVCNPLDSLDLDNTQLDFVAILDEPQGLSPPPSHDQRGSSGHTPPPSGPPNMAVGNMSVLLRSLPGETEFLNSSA
GLI1(S102/104/130/132A) mutant (P08151, form named): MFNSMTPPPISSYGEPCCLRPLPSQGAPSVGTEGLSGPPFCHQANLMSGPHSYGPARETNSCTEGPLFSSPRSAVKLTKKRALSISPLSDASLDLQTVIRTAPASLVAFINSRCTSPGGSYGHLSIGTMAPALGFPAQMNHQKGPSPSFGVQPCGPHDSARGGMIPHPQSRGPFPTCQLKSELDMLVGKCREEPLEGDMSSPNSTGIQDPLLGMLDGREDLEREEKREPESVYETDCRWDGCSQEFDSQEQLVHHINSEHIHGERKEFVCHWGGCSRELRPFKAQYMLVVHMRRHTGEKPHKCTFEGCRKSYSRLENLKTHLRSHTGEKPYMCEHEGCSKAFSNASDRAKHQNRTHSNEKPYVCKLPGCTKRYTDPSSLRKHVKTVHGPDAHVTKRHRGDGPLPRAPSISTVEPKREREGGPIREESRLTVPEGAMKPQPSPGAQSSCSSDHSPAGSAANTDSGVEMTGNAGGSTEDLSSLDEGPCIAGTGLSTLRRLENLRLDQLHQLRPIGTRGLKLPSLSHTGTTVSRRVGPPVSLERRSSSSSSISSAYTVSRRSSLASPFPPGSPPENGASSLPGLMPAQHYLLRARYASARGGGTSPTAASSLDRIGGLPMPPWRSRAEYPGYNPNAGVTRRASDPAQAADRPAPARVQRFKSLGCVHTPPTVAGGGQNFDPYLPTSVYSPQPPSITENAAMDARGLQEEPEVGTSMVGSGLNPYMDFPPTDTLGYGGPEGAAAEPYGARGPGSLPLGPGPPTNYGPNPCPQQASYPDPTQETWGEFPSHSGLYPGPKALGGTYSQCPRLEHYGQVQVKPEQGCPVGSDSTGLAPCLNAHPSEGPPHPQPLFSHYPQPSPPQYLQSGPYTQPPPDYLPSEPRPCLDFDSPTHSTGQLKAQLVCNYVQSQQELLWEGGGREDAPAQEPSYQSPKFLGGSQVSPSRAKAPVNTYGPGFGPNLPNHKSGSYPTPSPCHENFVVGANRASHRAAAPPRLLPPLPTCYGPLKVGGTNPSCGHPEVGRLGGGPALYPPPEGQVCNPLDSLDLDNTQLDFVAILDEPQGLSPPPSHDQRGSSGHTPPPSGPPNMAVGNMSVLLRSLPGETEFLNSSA

No constants are given. Whether binding was seen depends on the method and setting. In cells and extracts the contact can be indirect. Some binding calls cover weakened binding; strength is not graded here. For some of these results: Sequences can lack the tags named with a protein.

Assay [1] has as its target T1, suppressor of fused (SUFU), exogenous (UniProt Q9UMX1).
T1 sequence: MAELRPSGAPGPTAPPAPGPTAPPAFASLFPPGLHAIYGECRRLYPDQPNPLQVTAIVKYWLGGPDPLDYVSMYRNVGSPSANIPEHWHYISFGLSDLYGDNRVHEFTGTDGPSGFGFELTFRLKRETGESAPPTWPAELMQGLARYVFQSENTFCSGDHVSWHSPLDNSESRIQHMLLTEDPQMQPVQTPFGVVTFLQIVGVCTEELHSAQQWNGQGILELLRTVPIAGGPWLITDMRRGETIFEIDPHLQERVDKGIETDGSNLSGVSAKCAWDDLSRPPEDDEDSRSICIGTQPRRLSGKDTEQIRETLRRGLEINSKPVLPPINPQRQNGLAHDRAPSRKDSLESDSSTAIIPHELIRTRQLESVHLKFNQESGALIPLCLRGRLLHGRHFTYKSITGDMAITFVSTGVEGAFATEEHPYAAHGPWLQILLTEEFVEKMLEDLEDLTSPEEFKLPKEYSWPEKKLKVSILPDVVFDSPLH
Briefly: co-IP; exogenous SUFU and GLI1 (wild type or mutant) in HEK293T cells with co-transfected active DYRK1A.

For assay [2], the target named is T1, suppressor of fused (SUFU), exogenous. Briefly: co-IP; exogenous SUFU and GLI1 (wild type or mutant) co-transfected in HEK293T cells; without DYRK1A, or with kinase-dead DYRK1A K188R.
Assay [3] deals with T2, Jumonji domain demethylase 1A (JMJD1A, KDM3A), endogenous (human (endogenous in Hek293T)) (UniProt Q9Y4C1).
T2 sequence: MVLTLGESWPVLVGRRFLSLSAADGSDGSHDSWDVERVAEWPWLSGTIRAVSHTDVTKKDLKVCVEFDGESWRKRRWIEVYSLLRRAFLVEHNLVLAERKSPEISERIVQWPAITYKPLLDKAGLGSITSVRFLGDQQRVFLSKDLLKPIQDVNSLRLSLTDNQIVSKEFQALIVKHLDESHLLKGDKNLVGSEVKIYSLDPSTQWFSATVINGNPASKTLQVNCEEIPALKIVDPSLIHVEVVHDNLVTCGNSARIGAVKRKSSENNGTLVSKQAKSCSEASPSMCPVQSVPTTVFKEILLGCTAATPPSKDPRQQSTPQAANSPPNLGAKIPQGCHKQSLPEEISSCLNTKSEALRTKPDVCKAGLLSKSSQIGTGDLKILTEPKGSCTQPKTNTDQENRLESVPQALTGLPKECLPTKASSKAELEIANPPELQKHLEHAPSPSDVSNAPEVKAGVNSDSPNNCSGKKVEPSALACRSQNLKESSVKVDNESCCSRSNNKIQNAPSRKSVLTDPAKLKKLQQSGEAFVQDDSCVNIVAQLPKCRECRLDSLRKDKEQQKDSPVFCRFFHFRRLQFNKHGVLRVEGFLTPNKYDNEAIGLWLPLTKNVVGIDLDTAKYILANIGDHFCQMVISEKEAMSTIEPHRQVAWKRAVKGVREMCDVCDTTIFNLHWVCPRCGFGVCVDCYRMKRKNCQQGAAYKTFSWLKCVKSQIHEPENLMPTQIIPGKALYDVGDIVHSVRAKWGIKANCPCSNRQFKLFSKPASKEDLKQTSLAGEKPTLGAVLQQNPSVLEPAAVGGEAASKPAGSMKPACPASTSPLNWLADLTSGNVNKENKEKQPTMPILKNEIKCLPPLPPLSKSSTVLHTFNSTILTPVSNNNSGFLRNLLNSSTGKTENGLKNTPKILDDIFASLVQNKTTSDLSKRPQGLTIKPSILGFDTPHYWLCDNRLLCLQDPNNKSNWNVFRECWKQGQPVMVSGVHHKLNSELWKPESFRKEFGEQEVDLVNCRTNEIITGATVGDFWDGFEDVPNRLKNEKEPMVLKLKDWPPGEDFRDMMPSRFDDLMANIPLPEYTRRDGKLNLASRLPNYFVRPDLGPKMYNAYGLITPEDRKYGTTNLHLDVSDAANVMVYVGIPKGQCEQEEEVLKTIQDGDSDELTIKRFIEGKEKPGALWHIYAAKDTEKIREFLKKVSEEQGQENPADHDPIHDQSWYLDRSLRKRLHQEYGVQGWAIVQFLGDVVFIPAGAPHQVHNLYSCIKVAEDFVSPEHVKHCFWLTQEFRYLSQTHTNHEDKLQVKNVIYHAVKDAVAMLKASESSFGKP
As to the kind of experiment: co-IP; endogenous KDM3A and endogenous GLI1 in Hek293T cells.

Turning to “GLI1 (exogenous, wild type) (from UniProt P08151 1-1106)”, the binding entry is given as “no binding (condition: with co-transfected DYRK1A)” in assay [1] and “binds” in assay [2].
For “GLI1 S102/104/130/132D (S4D; phosphomimicking) mutant (from UniProt P08151 1-1106)”, in that order: “no binding (condition: with co-transfected DYRK1A)” and “binds”.
For “GLI1(S102/104/130/132A) mutant (from UniProt P08151 1-1106)”, the binding entry in assay [1] was “no binding (condition: with co-transfected DYRK1A)”; in assay [2] it was “binds”.
As to “GLI1, endogenous (from UniProt P08151 1-1106)”, the binding entry in assay [3] is listed as “binds”.
